This is an account of results in the supplement of paper PMC11417369.

± gives the standard deviation of the averaged measurements. Some of the results follow.

The test system of the experiment is PfAP2-G AP2 domain (GST-tagged). Put plainly: gcPBM binding intensity (ln(normalized median fluorescence intensity)); higher = stronger DNA binding. An outline of the steps:
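The highest Masliner-normalised natural-log median intensity across replicate spots of either probe orientation is reported as binding intensity. GST-tagged P. falciparum DNA-binding domains expressed in E. coli were applied for 1 h to an Agilent 4 × 180k array of primer-extended double-stranded 36-bp intergenic genomic probes plus negative controls, and bound protein was detected with Alexa488 anti-GST antibody and scanned at 488 nm.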
For “TAAGTTTGTCAATCAACACACACCTATTTATTATAT [CACACA_site3919]”, the “gcPBM binding intensity (ln)” value turned out to be 10.1 ± 0.085.
Consider “CACTTTAATTTATGCACACATATGGAACAACAGCCA [CACACA_site994]”, for which the “gcPBM binding intensity (ln)” value was 10.5 ± 0.33.
The same measure for “CTTAAAATGATAATATGTACACATAAATAATATATA [XGTACX_site8330]”: 11.5 ± 0.76; for “TTTTTTGACATTCCTTTTAATAATTAACGAAAGGCA [GTGCAC_negctrl_site377]”: 9.94 ± 0.23.
“ACCATTTGAAAATTCACACACTTTATTTTGTTATAT [CACACA_site5976]”: the “gcPBM binding intensity (ln)” value is 10.09 ± 0.057.
The same measure for “ACTAATATGCAATATTGTACATATATATAGAAATAT [XGTACX_site5273]”: 10.9 ± 0.59.
The same measure for “TATATAATATTACGTTGTACACTTTAATCTCCCTTC [XGTACX_site5577]”: 11.1 ± 0.7; for “TATAATCAATGCCAAAGTACATATTAATATATTTAT [XGTACX_site4558]”: 10.8 ± 0.52; for “AATATATCGCATAGTTGTACAGAATTTTTACTTTTA [XGTACX_site8192]”: 11.1 ± 0.71.
The same measure for “ATTGAAAAATAAAAATGTACACATGTAGCATACCAT [XGTACX_site3275]”: 11.4 ± 0.65.
Take “GAACTAATAATGAAAAGTACACATACACATATATAT [XGTACX_site6789]”: the “gcPBM binding intensity (ln)” value came out at 11.3 ± 0.61.
The same measure for “CTACCAAATCTATAGACACACATATATATATATATT [CACACA_site2486]”: 10.02 ± 0.092; for “AAATGTATACACATGGTGCGTAATATATTATATATA [GTGCAC_site9877]”: 10.2 ± 0.13.
With “AAATACAAGGGACATGCATACCACTATTTTTTAAAT [TGCATGCA_site588]”, the “gcPBM binding intensity (ln)” value came out at 10.4 ± 0.3.
The same measure for “TTTATATAATAGTTATGTACTTAAACGAAAGATACA [XGTACX_site8495]”: 11.2 ± 0.61.
The same measure for “TATAGAAAATTTATATGTACATATATATATATATAT [XGTACX_site4451]”: 11.4 ± 0.88.
Turning to “TAAAATTTAAGTTATACACACTTAAGTAACATCATC [CACACA_site6395]”, the “gcPBM binding intensity (ln)” value turned out to be 10.2 ± 0.13.
As to GCATATGTATATAATGTGCACATGGATTATATAAAA, the “gcPBM binding intensity (ln)” value was found to be 10.4 ± 0.27.
With “TATTTACAGACATGCGCACACATAAATAAATAATAG [CACACA_site2411]”, the “gcPBM binding intensity (ln)” value stood at 10.5 ± 0.33.
The same measure for “GTTACTGCATACATAACACACATATTCAAAACACAT [CACACA_site3502]”: 10.09 ± 0.064; for “AAAGATATTTTTATCTCACACATATAATATATATAT [CACACA_site5478]”: 9.84 ± 0.16; for “AAAAATTACCTGACTTGTACATAATTTAAGAACAAT [XGTACX_site6233]”: 11.1 ± 0.63.
For “ATAATATATTTATAATGTACATAAGAACAAATTAAA [XGTACX_site1745]”, the “gcPBM binding intensity (ln)” value is 11.1 ± 0.55.
The same measure for “GGTATATTAAAATAGGTGCATAAAACTAAGAGAAAA [GTGCAC_site9781]”: 10.3 ± 0.24.
The same measure for “ACGTTTGATACACATAAAGTTTTCCTTTGAATGTAC [CACACA_negctrl_site106]”: 11 ± 0.67.
The same measure for “TGTGCTATATTCATATGTACATATAATTATTATATA [XGTACX_site3549]”: 11.2 ± 0.72.
As to “ATAAAATAAAAGTGTACACAAGAAAATATGTTATGT [CACACA_site6033]”, the “gcPBM binding intensity (ln)” value worked out at 11.6 ± 0.79.
The same measure for TATTTATGAGAAATAGTGCAAAGATATGATCTTTAA: 9.8 ± 0.014; for “AATTAAAAACATTTCACACATAAAAATGAAATATAT [CACACA_site5199]”: 9.84 ± 0.028; for “TAAAATATATAATAATGTACATATTTTTATTTAGGA [XGTACX_site4987]”: 11.2 ± 0.73.
The same measure for “AATAATACACAATTTTGTACGTATTTAAAATATATT [XGTACX_site45]”: 11.3 ± 0.87; for “AACTCACATAAATTCACACAAATGTATATTCATATA [CACACA_site4554]”: 9.7 ± 0.15; for “ATTGATCGGATAAAATGTACAAATATATATATATAT [XGTACX_site7345]”: 10.8 ± 0.24.
The same measure for “ATTTATAATGTGTATACACACATATATAGATTTGCT [CACACA_site6440]”: 9.89 ± 0.042; for “TGATTCTTTTGTATCACACACACTTAGTTTAATTTT [CACACA_site2404]”: 10 ± 0.17.
For the sequence “ACTTGACACGGACACACACACATATATAAAAAAAAA [CACACA_site4576]”, the “gcPBM binding intensity (ln)” value was 11.2 ± 0.91.
The same measure for “TTTTTTTATTATCATGCACACATTTTTTTTTTTTAC [CACACA_site2253]”: 10.07 ± 0.099.
The same measure for “TCCTTTATTTTTAAATGTACAAATATTATCTCCTCA [XGTACX_site5856]”: 10.8 ± 0.52.
The same measure for “ATAATAAAAATAAGAGAATAAAAATGCAATTTAATG [CACACA_negctrl_site878]”: 9.65 ± 0.23; for “TATATATATATATATTGTACACATATATATTTACGA [XGTACX_site4791]”: 11.3 ± 0.83; for “AAATTATAATATAATACACACATAAAAAAAAAATCA [CACACA_site3634]”: 9.975 ± 0.049.
In the case of “AAAAAATAATAAATCACACATATTATATATATATAT [CACACA_site5838]”, the “gcPBM binding intensity (ln)” value stood at 9.85 ± 0.39.
The same measure for “AACATGAAAGATAGCAAAAAAAAAAAAAAAAAAAAA [TGCATGCA_negctrl_site607]”: 9.48 ± 0.42.
As to “ATTATAATATTGTTATGTACATAAAAATTATTGAAT [XGTACX_site4476]”, the “gcPBM binding intensity (ln)” value was 11.3 ± 0.73.
With “AAAACATAAATACATACACACATAATATATATTAAT [CACACA_site109]”, the “gcPBM binding intensity (ln)” value stood at 10.1 ± 0.21.
The same measure for “TCTTTTTTTATTTTATTTTTTTTTTTTAAATAATTC [TGCATGCA_negctrl_site372]”: 9.61 ± 0.21; for “CATATTAATATTATGGGTACATATAAATTTACATTC [XGTACX_site687]”: 11.4 ± 0.83.
The same measure for “CATATATTATTTATACGTACTAATAAAATAAATCAA [XGTACX_site1030]”: 11.3 ± 0.84.
The same measure for “TATGATACATAAATATGTACGTATAATATATATTTA [XGTACX_site7002]”: 11.4 ± 0.98; for “GTGCATATCTGATATACACACAATAAAATAGTATGT [CACACA_site7203]”: 10.02 ± 0.021; for “AATTATATATTTGAGAGTACATATGTAATGTTTATA [XGTACX_site6970]”: 11.2 ± 0.76.
On to “ACATATACATATATATGTACATAAATATATATATAT [XGTACX_site8630]”, for which the “gcPBM binding intensity (ln)” value came out at 11.2 ± 0.69.
The same measure for “CCCGTAAATTATGAGTGTACGTTATTTTTTAAAATG [XGTACX_site3946]”: 11.5 ± 0.95.
The same measure for “GAACGTATCATGTGTACACACAAATTGTTTTTTTTT [CACACA_site2020]”: 11.7 ± 0.91.
The same measure for “AAGAATAATAATAAATGTACACAATATTATATATAT [XGTACX_site5525]”: 11.3 ± 0.64.
For “AAATGAACAAGTGGCACACACACATTATAACTAATT [CACACA_site9048]”, the “gcPBM binding intensity (ln)” value came to 10.2 ± 0.2.
“TTCTAACTTTTAAACACACAAATATAAATAAGTATA [CACACA_site7473]”: the “gcPBM binding intensity (ln)” value is 9.91 ± 0.12.
With “TATATACACAAACACACACACACATACACCCACATA [CACACA_site8504]”, the “gcPBM binding intensity (ln)” value came out at 10.5 ± 0.5.
The same measure for “TATGTAGTCACAAGGTGTACACTTTAACAAATTATG [XGTACX_site8792]”: 11.5 ± 0.88; for TGCAAGCTTATATAGGTGCACATGTATACGTGTTCA: 10.3 ± 0.26; for “TTGATGTTGGTAGGATGTACGGTACCGGTAAAGTTT [XGTACX_site7705]”: 11.1 ± 0.69.
The same measure for “TTTTTAATTTTTTGTTGTACATATAATATATTATTA [XGTACX_site4903]”: 11.3 ± 0.63.
The same measure for “TGTATGAAATATATTACACACATATAAAATCTATAT [CACACA_site6514]”: 9.805 ± 0.078; for “TATATAATTATAAGAACACACATATATATATATATA [CACACA_site2472]”: 10.3 ± 0.4.
Turning to “AAATTTGAAGAATATTGTACGCATAATAATTAAATA [XGTACX_site4300]”, the “gcPBM binding intensity (ln)” value worked out at 11.5 ± 0.95.
Regarding “AAGCTTCATTAATATACACACATATATGCGTATATT [CACACA_site3695]”, the “gcPBM binding intensity (ln)” value is 9.93 ± 0.028.
The same measure for “ATGCTTTTTAAATGATTGCACTAGATTGTAATATGT [GTGCAC_site9666]”: 10.02 ± 0.099.
As for “TATATATATATTTTAACACACACATATATATATTTA [CACACA_site8892]”, the “gcPBM binding intensity (ln)” value is 9.875 ± 0.078.
The same measure for “ATATATATATATTGCACACACAATTATTATTATTAT [CACACA_site2299]”: 10.3 ± 0.37; for “TTATAGAATTTATTTACACACAAACATTTATACTTT [CACACA_site7592]”: 10.1 ± 0.16; for “TATTTATTTTCATATAGTACTTTTTTCAGGCATATA [XGTACX_site6691]”: 11.2 ± 0.66.
The same measure for “ACTCCATAATATTGATGTACTATAATGCATTTATTT [XGTACX_site5562]”: 10.9 ± 0.58; for “TTTATTTATGTTGAAACATGCAAAAAGTTATTTATA [TGCATGCA_site716]”: 9.87 ± 0.23.
The same measure for “TTCAAAAGCCGGATAACATGCAGTAGTAGAACAAAC [TGCATGCA_site413]”: 10.15 ± 0.057; for “TTTTATTTCTTTGCACCATTTTAAATACAAACAAAT [CACACA_negctrl_site1553]”: 10.5 ± 0.33.
As for “TAAAACAATACTTTGTGCTTCTCTGGTTTTTTTTTT [GTGCAC_negctrl_site284]”, the “gcPBM binding intensity (ln)” value is 9.81 ± 0.2.
The same measure for “GCTTTTAAAATAATTGGTACACATGTATAAATTCAA [XGTACX_site2327]”: 11.1 ± 0.69; for “AGTATTCACTTAATATGTACATATTTATTATAAGAG [XGTACX_site3434]”: 11.3 ± 0.68.
The same measure for “TTTCTGTGTTTTGGTTGTACACACGCTACATTATAT [XGTACX_site5669]”: 11.4 ± 0.71; for “TTGTTTTTTTTTTCTATAAGCATAAAAATGATATAA [XGTACX_negctrl_site356]”: 9.68 ± 0.23; for “TTTATTTATTATTAAAGTACTAAATCATATAATTAT [XGTACX_site5727]”: 10.8 ± 0.71.
The same measure for “AAATTAAAAAAATAATGTACATGTATTTATTATGTA [XGTACX_site2419]”: 11.1 ± 0.6; for “TGGTATATAAAACACACACACATATGTATTTATATA [CACACA_site4665]”: 10.12 ± 0.092; for “TTTTGCCTTTCTACTTGTACTTAAAATATTATAATT [XGTACX_site5483]”: 11.2 ± 0.83.
Consider “ATTCTAAATAATAAGAGTACAAATAATATGGAGAAG [XGTACX_site5209]”, for which the “gcPBM binding intensity (ln)” value was found to be 11.2 ± 0.53.
Take “CACAAAAAGAAACACACACACATATATATATATATA [CACACA_site999]”: the “gcPBM binding intensity (ln)” value came to 10.2 ± 0.59.
On to “GAAAATATGTAATAGTGTACACATATATATGTATAT [XGTACX_site306]”, for which the “gcPBM binding intensity (ln)” value turned out to be 11.6 ± 1.
The same measure for “TGCTCATTCCTGTCATGTACATATTATATATATATA [XGTACX_site6890]”: 11.3 ± 0.99.
The same measure for “ATATGAACATTTACATGTACATGTAAATGTAACACT [XGTACX_site4574]”: 11.2 ± 0.78.
